Test results reported in publication PMC12136788.
The other results are listed elsewhere or left out.

T1: UNK ZnF1-3 (human, UniProt Q9C0B0 31-174)
T1 sequence: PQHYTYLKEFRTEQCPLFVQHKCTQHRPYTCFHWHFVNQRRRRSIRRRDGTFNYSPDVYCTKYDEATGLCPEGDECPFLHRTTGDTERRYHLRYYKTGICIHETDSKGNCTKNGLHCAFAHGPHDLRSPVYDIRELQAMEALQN

B1: chr5:128440902:128440903:+_ENSG00000066583_ENST00000173527|hu_mus|hu_hu_hu_mus_True|38_108 (ssRNA)
RNA: GGGAGUUCUACAGUCCGACGAUCUUGAACCGUGCUCCCAAGUCCUUUGGGGUAUUGUUCCGUUAUGAUAACUGGAAUCCCUAAGAUCCGAGCUCCUUGCAACAAUCUCUGUCCCACACUAAUGAUGUCCCCAAAGUAUUUGAUCAACAGAGGAUUGAGCAUCA
B2: chr7:54823571:54823572:-_ENSG00000132432_ENST00000352861|hu_mus|hu_hu_hu_mus_False|48_48 (ssRNA)
RNA: GGGAGUUCUACAGUCCGACGAUCUCCCAUGAUAGCAAAUCCUAUAGCUGUAGCCAUGGCAAUCUUCUGGAAUUCUUUUCUGUCGGGUUUAGUGCAUCUUUUAACCAGCCGAAUUGAGUCCUUUACAAACUGCCGGCUGGGCUCCAACAGAGGAUUGAGCAUCA
B3: chrX:70926549:70926550:+_ENSMUSG00000019558_ENSMUST00000114465|mus_mus|motif|central (ssRNA)
RNA: GGGAGUUCUACAGUCCGACGAUCCAGGCAGACCCCCAAACUGUCAAGGAAAGGCAAGCCCCCGGAGGGAUGAGUGGGGGCGGAAGUUGGGGCUGCUAUGGCUACCAAAGGAUGAGCUGGUGAUGUGAGCUGGGGGUGCCUGUUCAACAGAGGAUUGAGCAUCA
B4: chr3:19126987:19126988:-_ENSMUSG00000069094_ENSMUST00000091314|mus_hu|FALSE|FALSE (ssRNA)
RNA: GGGAGUUCUACAGUCCGACGAUCUAAAAAAAAUUGCAUUGCCAAACGGCACUGGAGUGAAAGCUUGGCGGUACUCUACGAUAAAUGCUCAGUUUCCAGUGCAUGAAAUAAAACUAUAGCAAAUGGGAGGCUUUGGUGGCAUCCCAACAGAGGAUUGAGCAUCA
B5: chr9:57400063:57400064:-_ENSMUSG00000032306_ENSMUST00000034856|mus_mus|FALSE|FALSE (ssRNA)
RNA: GGGAGUUCUACAGUCCGACGAUCCAGGCAUGCCACUUCACUUUUGGAGCCCACCUUCCCCCAGGCAUACUGCUGCACCACACAGGAAAGUGGGAACACUCGCGGACUCGCCAUCCCAGUUGCCUGAAACCCGGCUUCAGGAACCAACAGAGGAUUGAGCAUCA
B6: chr17:65740002:65740003:+_ENSG00000130935_ENST00000581375|hu_hu|hu_hu_hu_mus_False|1_68 (ssRNA)
RNA: GGGAGUUCUACAGUCCGACGAUCAACAAAUCUUUCUUCCCUGGACGAACAGGAAGAUUCAUAUUAACUUUAUAAAAUAUCCAUCAAGUUAGGUGUGGUGGCCACACCUUUACUCCCAGCACUUUGGGAGGUGGAUCCUCUAUUCAACAGAGGAUUGAGCAUCA
B7: chr11:46405157:46405158:+_ENSG00000110492_ENST00000395566|hu_hu|hu_hu_hu_mus_False|78_88 (ssRNA)
RNA: GGGAGUUCUACAGUCCGACGAUCCCCUCCCCACUUUGGGCACUUGGUGAGAGGGACAAGGCAGGGCCGUGAUUGACAGAGCUGACAGGAAGACAAAAGGCACUGGUGGGUUAUAUCUUGGGCCUGUGGGAGAGGAGGGCUCCGCAACAGAGGAUUGAGCAUCA
B8: chr10:20042908:20042909:+_ENSMUSG00000037608_ENSMUST00000043881|mus_hu|FALSE|FALSE (ssRNA)
RNA: GGGAGUUCUACAGUCCGACGAUCGGAACGUGAACGACCUCGUCUAGGACUCCUAGAGUGCCUUCUAUUCCAGACAGGUCUAUAACCACCUCGAUGAUAUCUACCUCCUCCUCCUUGAUAAUACCCUCUACCCCUUCCUCUGUACAACAGAGGAUUGAGCAUCA
B9: chr16:94651144:94651145:+_ENSMUSG00000040785_ENSMUST00000117648|mus_mus|motif|central (ssRNA)
RNA: GGGAGUUCUACAGUCCGACGAUCCUUCUCUUGGAUCAAGUGACCGAUAACAUAGUCCACUGCUUCAUGGACAAAAUUUUUGCGGGAAAAGCAUGUUGUAUAGUCUUCCGUGCUCAGAACCUUCCAAGAGAGCAGCUCUUUGAGCAACAGAGGAUUGAGCAUCA
B10: chr11:87793471:87793472:-_ENSMUSG00000020483_ENSMUST00000020775|mus_mus|mus_mus_mus_hu_False|38_38 (ssRNA)
RNA: GGGAGUUCUACAGUCCGACGAUCUGGACUUGAAAAUAAAAGAAUAAGCUGGAUCCCCCACCCCCCCACAUUGUCAACCCUACACGAGAGUUUUGAAUGAUUCAUAAGAAAAUCAGCAGCUCAAACGGCAAUGACCACCCCACCCAACAGAGGAUUGAGCAUCA
B11: chr2:179515052:179515053:+_ENSMUSG00000000305_ENSMUST00000000314|mus_hu|mus_mus_mus_hu_False|18_68 (ssRNA)
RNA: GGGAGUUCUACAGUCCGACGAUCGCUGUCCCAUGCAGUCACCGUGAACGCCACCUGCUCGGAGGGGAUCUUCAACUCCCGGGUGGCGAAGACUGUCCCAUCUGCCCCAACUUUGAAGUCCAAGCUGUUGGUCUCAUAUUGUGUCAACAGAGGAUUGAGCAUCA
B12: chr7:109059925:109059926:+_ENSMUSG00000030842_ENSMUST00000033131|mus_mus|FALSE|FALSE (ssRNA)
RNA: GGGAGUUCUACAGUCCGACGAUCCAGGUUAGGUACUGUAGAGAGCCACAGUGAGGCUGGGGGCCAGAAGAGGUGGGGUGGAGACGGGGUGAAGACGAGGGAAGAGCUGUCCUAGGGCCCCUCUCUUCAUGGGAUCCCAAACUGCAACAGAGGAUUGAGCAUCA
B13: chr2:174291214:174291215:-_ENSMUSG00000016257_ENSMUST00000016401|mus_mus|motif|central (ssRNA)
RNA: GGGAGUUCUACAGUCCGACGAUCUUUUGUUUAGAUCAAAAGUCACAGCCUUACCCCACCUCAUUAAAAAAAAAGAUCGGCCGGAAAUAAUUGUGUCUUUUAAAUAACAAAUAAUAUGAUGCCAGCUUGAGAGUCCUGGAGCCCCAACAGAGGAUUGAGCAUCA
B14: chr4:106906351:106906352:-_ENSMUSG00000028617_ENSMUST00000030360|mus_mus|FALSE|FALSE (ssRNA)
RNA: GGGAGUUCUACAGUCCGACGAUCCCUCGUACUGAGGUGGGGGAGGUCGACUGUAUGUGUCAGUCAGUAGGAAUUGAGCAAAUCCCAAUCUUCCACAGCCAGACACACACACUUCUGCUUGGCCGACUGGGGCGAGCUCUGCUCCAACAGAGGAUUGAGCAUCA
B15: chr5:143665172:143665173:-_ENSMUSG00000029580_ENSMUST00000100497|perfect_dup|motif|central (ssRNA)
RNA: GGGAGUUCUACAGUCCGACGAUCGGCUUUUAGGAUGGCAAGGGACUUCCUGUAACAACGCAUCUCAUAUUUGGAAUGACGGUUAAAAAAACAACAAUGUGCAAUCAAAGUCCUCGGCCACAUUGUGAACUUUGGGGGAUGCUCCAACAGAGGAUUGAGCAUCA
B16: 121128427_121128547_4082_CDS_ENSMUSG00000027254_ENSMUST00000094639|mouse|control|control (ssRNA)
RNA: GGGAGUUCUACAGUCCGACGAUCGCUUUGAUCAGUAAACCCAAGCAGCUCAUCUUUCUGAGGCUCAGCGGGCUCCUGAGUCCUCACUUCUCCAGGAAGGCUGCCUGCUCCUGAAGCUGCGCCUGCCUCUCCAGUCUCAAACACCAACAGAGGAUUGAGCAUCA
B17: chr7:99579578:99579579:+_ENSMUSG00000052572_ENSMUST00000098308|mus_mus|FALSE|FALSE (ssRNA)
RNA: GGGAGUUCUACAGUCCGACGAUCAAAUCUCACAGAUUGCACACUGGUUCCGUAUAAAUUGUCAUUGUACUGGCCAGCUUCUAUAAAUUUGUGCUCUUGGAUAUCUUUCUCCAUUUGUUCUCUAGAAAUGACAAAGUGAUAGUCCAACAGAGGAUUGAGCAUCA
B18: chr17:56552419:56552420:-_ENSMUSG00000013236_ENSMUST00000086828|mus_mus|mus_mus_mus_hu_False|8_28 (ssRNA)
RNA: GGGAGUUCUACAGUCCGACGAUCAAAAAAUACACUAUUUAAAAAAAAUGAAAUGUCACGGGAUACAGUUACACUGAGAGUUUUAAAAGAAAGCUGGAUUCUGGUCCUUGCCAAAAGUCCCCAGGCUGAGUGCGGAAGAGGAGCCAACAGAGGAUUGAGCAUCA
B19: chr10:33214929:33214930:-_ENSG00000150093_ENST00000302278|hu_hu|hu_hu_hu_mus_True|28_38 (ssRNA)
RNA: GGGAGUUCUACAGUCCGACGAUCAACAAGUUCAUUGAAAAACUCUCCUCUGUCAGUAAGACUAAGCACAUUUUUGUAGCUAAAUGGGCUGGUGCAGUUCUGUUCACUUGUGCAAGGAUUUCUUAGCUUUGCUGGGGUUGUGCUCAACAGAGGAUUGAGCAUCA
B20: chr2:155494191:155494192:-_ENSMUSG00000038324_ENSMUST00000041059|mus_mus|FALSE|FALSE (ssRNA)
RNA: GGGAGUUCUACAGUCCGACGAUCCUCGUCACUUAUUUUUAGUUUCUGUCCCCGGAUAGAGAUGGUAGGCCUCAUAAGAAUUUCUACAAGAAGAUCAACACCUCCAAAUAAGUCAAAAAUAUAUGUAUUUGGGUAUGUAGCUUCCAACAGAGGAUUGAGCAUCA
B21: chr4:175158712:175158713:-_ENSG00000164117_ENST00000503293|hu_hu|FALSE|FALSE (ssRNA)
RNA: GGGAGUUCUACAGUCCGACGAUCGCGACGGGUAUUUCGAAUAAAUUCCCUUUUUGACAUUUUAUUCUUCACAUGAGGGCUAGUGAGGUCAAUGGAAAGUAGAAUCAAAGAGUAGCACAGUACAUAGACAGCAUCAGGACUAAGCAACAGAGGAUUGAGCAUCA
B22: chr4:17845017:17845018:+_ENSG00000109805_ENST00000514176|hu_mus|hu_hu_hu_mus_False|28_28 (ssRNA)
RNA: GGGAGUUCUACAGUCCGACGAUCGCUCUCUUAACUUGUAUCUUCAUUAAGGAACUCUGCAAGGUUAAGUUUACUUUUCUGUAGCGCAGCUGUUUUGGCUCGUCUGGUAGUCUCAUCCUUCAUUUCUGAUGGUGGUUCAUGAUCCAACAGAGGAUUGAGCAUCA

Biological target: T1, UNK ZnF1-3
Assay: nsRBNS (natural sequence RNA bind-n-seq); RBNS binding buffer (assumed for nsRBNS): 25 mM Tris pH 7.5, 150 mM KCl, 3 mM MgCl2, 0.01% Triton X-100, 500 ug/ml BSA, 20 U/ml SUPERase-In, 4 C; UNK is unkempt and MSI1 is Musashi-1; names of the RNAs are library labels; protein concentration not given here; high values mean tight binding

Binder	binding signal
B1	0.712 enrichment R
B2	0.708 enrichment R
B3	1.48 enrichment R
B4	1.18 enrichment R
B5	0.936 enrichment R
B6	0.792 enrichment R
B7	1.7 enrichment R
B8	0.769 enrichment R
B9	0.614 enrichment R
B10	2.16 enrichment R
B11	0.678 enrichment R
B12	1.24 enrichment R
B13	2.64 enrichment R
B14	0.559 enrichment R
B15	1.06 enrichment R
B16	0.677 enrichment R
B17	0.743 enrichment R
B18	2.57 enrichment R
B19	0.795 enrichment R
B20	1.55 enrichment R
B21	1.78 enrichment R
B22	0.407 enrichment R
